Reference: PubChem BioAssay (NCATS)
The list shows a part of the results. These are further read-outs of the screen, such as a control signal, another cell line or another target. No call is given for them. Compounds called inactive in the main read-out are mostly missing here. Words in brackets tell the shape of the fitted curve; partial curves, single points and poor fits give uncertain potencies.
Tags give direction and shape of the fitted curve.

Assay: qHTS Assay for Lipid Storage Modulators (AID 1519)
Conditions: Drosophila S3 cells, BODIPY lipid droplet/cell ratio, laser cytometry; measured here: cell count channel max response; cells loaded with oleic acid
Summary of the method: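 Cells seeded at 5,000 per well were treated with compounds over a concentration series and loaded with oleic acid (400 uM, as added). Lipid droplet fluorescence (488 nm excitation, 500-530 nm channel) was read by laser-scanning cytometry and normalized to 20 uM Triacsin C.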
With `COc1cc(C[C@@H](C)N)c(OC)cc1I` the max response was 42.9%. Work on `c1ccc2nc(N3CCNCC3)ccc2c1` yielded a max response of 40.7%. With `Nc1ccncc1` the max response was 32%. With `C=C1CC2C(CC[C@]3(C)C(=O)CCC23)[C@]2(C)C=CC(=O)C=C12` (stereo not given in full) the max response was 16.5%. In the case of `NP(N)(=O)NC(=O)c1ccc(F)cc1`, the max response is reported as 4.13%. For `NCCc1ccc(S(=O)(=O)F)cc1`, the max response was 74.7%. Compound `NC(CP(=O)(O)O)C(=O)O` (stereo not given) has a max response of 36.3%. Work on `Cc1sc2ccccc2c1CC1=NCCN1` yielded a max response of 64.2%. `COC(=O)C[C@](O)(CCCC(C)(C)O)C(=O)O[C@@H]1C(OC)=C[C@]23CCCN2CCc2cc4c(cc2[C@H]13)OCO4` showed a max response of 47.5%. In the case of `O=[N+]([O-])c1ccc(O[C@@H]2O[C@H](CO)[C@@H](O)[C@H](O)[C@H]2F)c([N+](=O)[O-])c1`, the max response is reported as 49.9%. In the case of `NC(=O)c1cc(N2CC2)c([N+](=O)[O-])cc1[N+](=O)[O-]`, the max response is reported as 40.1%. Compound `C[C@@H](N)Cc1cnc[nH]1` has a max response of 49.2%. In the case of `CCCN(CCC)c1c([N+](=O)[O-])cc(C(F)(F)F)cc1[N+](=O)[O-]`, the max response is reported as -64.9%. With `CC(C)Oc1cccnc1N(C)C1CCN(Cc2ccccc2)CC1` the max response was -26.6%. Compound `COc1ccc2c(c1O)-c1cccc3c1C(C2)N(C)CC3` (stereo not given) has a max response of 37.5%. For `CCCn1c(=O)c2[nH]c(C3CCCC3)nc2n(CCCOC(=O)c2ccc(S(=O)(=O)F)cc2)c1=O`, the max response was 45%. `C#CCOC(=O)C1=CCCN(C)C1` gave a max response of 48.6%. Work on `CCC(C(=O)O)C1CCC(C)C(C(C)C(O)C(C)C(=O)C(CC)C2OC3(C=CC(O)[C@@]4(CC[C@](C)(C5CC[C@@](O)(CC)C(C)O5)O4)O3)C(C)CC2C)O1` (stereo not given in full) yielded a max response of 2.89%. `O=c1oc2ccccc2c(O)c1Cc1c(O)c2ccccc2oc1=O` gave a max response of 22.7%. `CC(N)C(=O)OC(C)(C)Cc1ccc(Cl)cc1` (stereo not given) showed a max response of 39.4%. For `CP(=O)(O)C1=CCNCC1`, the max response was 36.5%. `CCCN(CCC)[C@H]1CCc2c(F)ccc(O)c2C1` showed a max response of -19%. `NCC(O)c1ccc(O)cc1` (stereo not given) showed a max response of 52.8%. `CC1OC1P(=O)(O)O` (stereo not given) showed a max response of 32.6%. Work on `NNCc1cccc(O)c1` yielded a max response of 64.2%. Compound `COC(=O)c1cc2c(cn1)[nH]c1ccccc12` has a max response of 81.7%. For `NCCCP(=O)(O)O`, the max response was 47.7%. Compound `C[C@]12CC[C@H](O)CC1=CCC1C2CC[C@]2(C)C(=O)CC[C@@H]12` (stereo not given in full) has a max response of 11.5%. Work on `CC(C)NC(C)Cc1ccc(I)cc1` (stereo not given) yielded a max response of 28.7%. With `CN(C(=O)Cc1ccccc1)[C@H](CN1CCCC1)c1ccccc1` the max response was 28.7%. `CN1CCc2cc(O)cc3c2C1Cc1ccc(O)c(O)c1-3` (stereo not given) gave a max response of 49.1%. In the case of `CCCN1CCC[C@@H]2Cc3nc(N)ncc3C[C@H]21`, the max response is reported as 40.2%. With `CNc1ccc2oc(C[C@H]3O[C@@]4(CC[C@H]3C)O[C@H]([C@H](C)C(=O)c3ccc[nH]3)[C@H](C)C[C@H]4C)nc2c1C(=O)O` the max response was -31.7%. `CCOC(=O)c1ncn2c1[C@@H]1CCCN1C(=O)c1cc(OC)ccc1-2` gave a max response of 44.8%. `CN1C[C@@H](CS(=O)(=O)N(C)C)C[C@@H]2c3cccc4c3c(cn4C)C[C@H]21` gave a max response of 67.8%. `COc1cc(CC(C)N)c(OC)cc1I` (stereo not given) gave a max response of 34.2%. `C/C(O)=C(/C#N)C(=O)Nc1cc(Br)ccc1Br` showed a max response of 57%. With `CCn1cnc2c(Nc3cccc(Cl)c3)nc(N[C@@H]3CCCC[C@@H]3N)nc21` the max response was 50.6%. With `Cc1ncc(CNC(=O)N(CCCl)N=O)c(N)n1` the max response was 34.1%. `CNCCC(Oc1ccc(C(F)(F)F)cc1)c1ccccc1` (stereo not given) showed a max response of 42.4%.

Same assay, conditions: Drosophila S3 cells, BODIPY lipid droplet/cell ratio, laser cytometry; measured here: lipid (BODIPY) channel AC50; cells loaded with oleic acid
With `C=C1CC2C(CC[C@]3(C)C(=O)CCC23)[C@]2(C)C=CC(=O)C=C12` (stereo not given in full) the AC50 was 1.78 µM [rising, full curve, poor fit]. In the case of `NP(N)(=O)NC(=O)c1ccc(F)cc1`, the AC50 is reported as 14.1 µM [rising, single point]. In the case of `CCC(C(=O)O)C1CCC(C)C(C(C)C(O)C(C)C(=O)C(CC)C2OC3(C=CC(O)[C@@]4(CC[C@](C)(C5CC[C@@](O)(CC)C(C)O5)O4)O3)C(C)CC2C)O1` (stereo not given in full), the AC50 is reported as 20 µM [falling, single point]. In the case of `O=c1oc2ccccc2c(O)c1Cc1c(O)c2ccccc2oc1=O`, the AC50 is reported as 22.4 µM [rising, single point]. In the case of `CN(C(=O)Cc1ccccc1)[C@H](CN1CCCC1)c1ccccc1`, the AC50 is reported as 7.94 µM [rising, partial curve, poor fit].

Same assay, conditions: Drosophila S3 cells, BODIPY lipid droplet/cell ratio, laser cytometry; measured here: lipid channel max response; cells loaded with oleic acid
`COc1cc(C[C@@H](C)N)c(OC)cc1I` showed a max response of 42.9%. `c1ccc2nc(N3CCNCC3)ccc2c1` gave a max response of 41.7%. Compound `Nc1ccncc1` has a max response of 30.3%. With `C=C1CC2C(CC[C@]3(C)C(=O)CCC23)[C@]2(C)C=CC(=O)C=C12` (stereo not given in full) the max response was 20.5%. Compound `NP(N)(=O)NC(=O)c1ccc(F)cc1` has a max response of 9.99%. `NCCc1ccc(S(=O)(=O)F)cc1` gave a max response of 75%. Work on `NC(CP(=O)(O)O)C(=O)O` (stereo not given) yielded a max response of 37.8%. With `Cc1sc2ccccc2c1CC1=NCCN1` the max response was 61.4%. For `COC(=O)C[C@](O)(CCCC(C)(C)O)C(=O)O[C@@H]1C(OC)=C[C@]23CCCN2CCc2cc4c(cc2[C@H]13)OCO4`, the max response was 2.47%. `O=[N+]([O-])c1ccc(O[C@@H]2O[C@H](CO)[C@@H](O)[C@H](O)[C@H]2F)c([N+](=O)[O-])c1` gave a max response of 50.6%. Compound `NC(=O)c1cc(N2CC2)c([N+](=O)[O-])cc1[N+](=O)[O-]` has a max response of 39.4%. `C[C@@H](N)Cc1cnc[nH]1` gave a max response of 49.8%. In the case of `CCCN(CCC)c1c([N+](=O)[O-])cc(C(F)(F)F)cc1[N+](=O)[O-]`, the max response is reported as -87.3%. For `CC(C)Oc1cccnc1N(C)C1CCN(Cc2ccccc2)CC1`, the max response was -27.9%. For `COc1ccc2c(c1O)-c1cccc3c1C(C2)N(C)CC3` (stereo not given), the max response was 39.6%. `CCCn1c(=O)c2[nH]c(C3CCCC3)nc2n(CCCOC(=O)c2ccc(S(=O)(=O)F)cc2)c1=O` showed a max response of 44.3%. Compound `C#CCOC(=O)C1=CCCN(C)C1` has a max response of 47.1%. Work on `CCC(C(=O)O)C1CCC(C)C(C(C)C(O)C(C)C(=O)C(CC)C2OC3(C=CC(O)[C@@]4(CC[C@](C)(C5CC[C@@](O)(CC)C(C)O5)O4)O3)C(C)CC2C)O1` (stereo not given in full) yielded a max response of -33.9%. In the case of `O=c1oc2ccccc2c(O)c1Cc1c(O)c2ccccc2oc1=O`, the max response is reported as 34.8%. `CC(N)C(=O)OC(C)(C)Cc1ccc(Cl)cc1` (stereo not given) showed a max response of 39.7%. With `CP(=O)(O)C1=CCNCC1` the max response was 36.7%. For `CCCN(CCC)[C@H]1CCc2c(F)ccc(O)c2C1`, the max response was -18%. In the case of `NCC(O)c1ccc(O)cc1` (stereo not given), the max response is reported as 56.4%. `CC1OC1P(=O)(O)O` (stereo not given) showed a max response of 32.9%. Work on `NNCc1cccc(O)c1` yielded a max response of 54.5%. Compound `COC(=O)c1cc2c(cn1)[nH]c1ccccc12` has a max response of 84.8%. In the case of `NCCCP(=O)(O)O`, the max response is reported as 46.8%. For `C[C@]12CC[C@H](O)CC1=CCC1C2CC[C@]2(C)C(=O)CC[C@@H]12` (stereo not given in full), the max response was 19%. `CC(C)NC(C)Cc1ccc(I)cc1` (stereo not given) gave a max response of 31.7%. With `CN(C(=O)Cc1ccccc1)[C@H](CN1CCCC1)c1ccccc1` the max response was 30.9%. For `CN1CCc2cc(O)cc3c2C1Cc1ccc(O)c(O)c1-3` (stereo not given), the max response was 52.4%. `CCCN1CCC[C@@H]2Cc3nc(N)ncc3C[C@H]21` gave a max response of 28%. Compound `CNc1ccc2oc(C[C@H]3O[C@@]4(CC[C@H]3C)O[C@H]([C@H](C)C(=O)c3ccc[nH]3)[C@H](C)C[C@H]4C)nc2c1C(=O)O` has a max response of -75.1%. `CCOC(=O)c1ncn2c1[C@@H]1CCCN1C(=O)c1cc(OC)ccc1-2` showed a max response of 48.9%. For `CN1C[C@@H](CS(=O)(=O)N(C)C)C[C@@H]2c3cccc4c3c(cn4C)C[C@H]21`, the max response was 73.5%. With `COc1cc(CC(C)N)c(OC)cc1I` (stereo not given) the max response was 38.6%. In the case of `C/C(O)=C(/C#N)C(=O)Nc1cc(Br)ccc1Br`, the max response is reported as 72.5%. `CCn1cnc2c(Nc3cccc(Cl)c3)nc(N[C@@H]3CCCC[C@@H]3N)nc21` showed a max response of 49%. With `Cc1ncc(CNC(=O)N(CCCl)N=O)c(N)n1` the max response was 36.3%. `CNCCC(Oc1ccc(C(F)(F)F)cc1)c1ccccc1` (stereo not given) showed a max response of 41.9%.
